Data: PubChem BioAssay AID1745853 (National Center for Advancing Translational Sciences (NCATS), 2022)
This is one part of the list. The main result of the screen is listed elsewhere. These columns were measured beside it and carry no call.

Experiments:
Experiment in all cases: Primary Screen for Target Class Profiling of Small Molecule Inhibitors of Methyltransferases
[1] = target: Glycine N-methyltransferase (Homo sapiens) (UniProt Q14749); details: purified enzyme, MTase-Glo SAH luminescence; measured here: GNMT inhibition; at 40 µM; stronger effect = lower value
Procedure, shortened: (§1)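 Each enzyme was reacted with SAM and its substrate, with compounds tested once at 40 uM; SAH formed was read by MTase-Glo luminescence.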

[2] = target: Guanidinoacetate N-methyltransferase (Homo sapiens) (UniProt Q14353); details: purified enzyme, MTase-Glo SAH luminescence; measured here: GAMT inhibition; at 40 µM; stronger effect = lower value
Procedure, shortened: as §1

[3] = target: Histamine N-methyltransferase (Homo sapiens) (UniProt P50135); details: purified enzyme, MTase-Glo SAH luminescence; measured here: HNMT inhibition; at 40 µM; stronger effect = lower value
Procedure, shortened: as §1

[4] = target: Nicotinamide N-methyltransferase (Homo sapiens) (UniProt P40261); details: purified enzyme, MTase-Glo SAH luminescence; measured here: NNMT inhibition; at 40 µM; stronger effect = lower value
Procedure, shortened: as §1

[5] = target: Phenylethanolamine N-methyltransferase (Homo sapiens) (UniProt P11086); details: purified enzyme, MTase-Glo SAH luminescence; measured here: PNMT inhibition; at 40 µM; stronger effect = lower value
Procedure, shortened: as §1
% is set by controls: 0 for no effect and ±100 for the full control effect.

| SMILES | activity change, negative = inhibition [1] [%] | activity change, negative = inhibition [2] [%] | activity change, negative = inhibition [3] [%] | activity change, negative = inhibition [4] [%] | activity change, negative = inhibition [5] [%] |
| --- | --- | --- | --- | --- | --- |
| Cc1ccc(C2c3cccn3-c3ccccc3CN2C(=O)Nc2ccc(C)cc2C)cc1 (stereo not given) | 1.05 | 1.15 | -1.76 | -4.13 | -3.06 |
| CC(C)NP(=O)(NC(C)C)OP(=O)(NC(C)C)NC(C)C | -1.11 | 1.54 | 0.626 | -6.31 | 1.58 |
| CCOc1ccc(C2c3cccn3-c3ccccc3CN2C(=O)Nc2cccc(OC)c2)cc1 (stereo not given) | -0.959 | 0.759 | -0.129 | -9.43 | -0.33 |
| CN(C(=O)CN1C(=O)COc2cc(Cl)c(Cl)cc21)[C@@H](CN1CCCC1)c1ccc(-c2cccc(C(N)=O)c2)cc1 | -26.3 | -1.21 | -26.6 | -32 | -36.7 |
| O=C(Nc1ccc2n(c1=O)C[C@H]1C[C@@H]2CN(C(=O)NC2CCCCC2)C1)c1ccco1 | -9.41 | -6 | -6.11 | -13.7 | -1.75 |
| CO[C@H]1[C@H](O)[C@H](O[C@H]2CC[C@]3(C=O)C4CC[C@]5(C)[C@H](C6=CC(=O)OC6)CC[C@]5(O)C4CC[C@@H]3C2)O[C@@H](C)[C@@H]1O (stereo not given in full) | -9.4 | -9.52 | 1.46 | -17.4 | -4.56 |
| COc1ccc(C2c3cccn3-c3ccccc3CN2C(=O)Nc2cc(OC)cc(OC)c2)cc1 (stereo not given) | 6 | 0 | -0.277 | -0.051 | 3.66 |
| Cn1ncnc1COc1nn2c(-c3c(F)cccc3F)nnc2cc1C1CCC1 | -0.751 | 4.07 | 5.91 | -17.3 | 0.922 |
| CC(=O)N1N=C(c2ccc(N)cc2)c2cc3c(cc2C[C@H]1C)OCO3 | 1.62 | -2.92 | 0.529 | -19 | -4.89 |
| CN1CC[C@@]2(C)c3cc(OC(=O)Nc4ccccc4)ccc3N(C)[C@@H]12 | -15.9 | 6.02 | -9.35 | -10.4 | -0.918 |
| N#CCCN | -4.81 | 6.96 | -1.14 | -2.56 | 8.04 |
| O=C(Nc1cccc2c1CCCC2)N1Cc2ccccc2-n2cccc2C1c1cccs1 (stereo not given) | 1.31 | 4.14 | -3.92 | -5.35 | 1.8 |
| C[C@@H](CN1CCC2(CC1)C(=O)NCN2c1cccc(F)c1)NC(=O)c1ccc(Br)cc1 | -6.38 | 11.4 | -3.26 | -15.8 | -2.24 |
| C[C@H]1CCC[C@H](O)CCC/C=C/c2cc(O)cc(O)c2C(=O)O1 | -94.3 | -95.9 | -93.7 | -97.6 | -98.1 |
| C[C@H]1CN(CC[C@H](O)C2CCCCC2)CC[C@@]1(C)c1cccc(O)c1 | -5.03 | -1.51 | -46.3 | -12 | -7.3 |
| CCc1ccc(NC(=O)N2Cc3ccccc3-n3cccc3C2c2ccc(OC)cc2)cc1 (stereo not given) | 8.15 | 7.87 | 1.82 | -0.259 | 1.83 |
| CC(C)NC(=O)N1Cc2ccccc2-n2cccc2C1c1ccc(Cl)cc1 (stereo not given) | -6.5 | 3.35 | -1.43 | -15.2 | 6.58 |
